Measured values: the supplement of paper PMC4166925
± gives the standard deviation of the averaged measurements. Whole data set: some 33,000 sequences, median “E-score (dimensionless, -0.5 to 0.5)” near -0.046, cut for the highest 2% near 0.36. The list shows a part of the results.

test system: T1, SpTbr T-box DNA-binding domain (GST fusion); assay: PBM E-score of 8-mer (E-score (dimensionless, -0.5 to 0.5)); Tbr is Tbrain of the sea star Patiria miniata (Pm) or the sea urchin Strongylocentrotus purpuratus (Sp); higher = stronger binding preference; most listed sequences are background and not binding sites; settings: the construct has about 5 more residues each side
T1 sequence: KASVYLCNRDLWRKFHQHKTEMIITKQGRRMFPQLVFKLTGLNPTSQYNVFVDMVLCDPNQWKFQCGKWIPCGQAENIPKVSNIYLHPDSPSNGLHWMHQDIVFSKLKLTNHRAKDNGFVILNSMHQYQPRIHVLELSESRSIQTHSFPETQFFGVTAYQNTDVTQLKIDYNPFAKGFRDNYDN
Method in brief: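 Expression of GST-fused Tbr T-box DNA-binding domains, each holding the full T-box plus roughly five flanking residues, was carried out in BL21 E. coli at 20 °C, with purification by glutathione affinity chromatography. Universal Agilent arrays made double-stranded by primer extension were incubated with the protein at 200 nM in PBS (pH 7.5), then scanned and quantified. All ungapped 8-mers were scored from probe intensities, and each received an enrichment E-score from the Universal PBM Analysis Suite, averaged over duplicate arrays.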

| Sequence | PBM E-score of 8-mer |
| --- | --- |
| ATAGGTTA | -0.224 ± 0.055 |
| GACGTTCC | -0.197 ± 0.016 |
| CGTGCGGA | 0.147 ± 0.028 |
| AATCCGTG | 0.113 ± 0.043 |
| CAGGAGAA | -0.162 ± 0.05 |
| GGTACACA | -0.053 ± 0.021 |
| CACAGATG | 0.0328 ± 0.018 |
| CTAGGTTC | -0.116 ± 0.048 |
| ACACCGCG | 0.286 ± 0.013 |
| CCTGTGAG | 0.24582 ± 4.2e-05 |
| CCTTATCA | 0.0899 ± 0.063 |
| GAACCGGC | -0.149 ± 0.0061 |
| ACATTCTC | 0.171 ± 0.072 |
| ACCCAGAC | 0.0883 ± 0.036 |
| GCCCATCC | -0.143 ± 0.012 |
| AATCGGCT | -0.0394 ± 0.044 |
| CAGGGCAG | 0.031 ± 0.018 |
| AGTATTCG | -0.0814 ± 0.025 |
| CAAAGTTC | -0.112 ± 0.022 |
| CTTATTAA | -0.183 ± 0.12 |
| CGGCGGCC | -0.26 ± 0.033 |
| TACTAACA | 0.209 ± 0.041 |

| Sequence | PBM E-score of 8-mer |
| --- | --- |
| CATTGTGC | -0.0653 ± 0.0057 |
| CAGGAATC | -0.232 ± 0.031 |
| TATAATGA | -0.0237 ± 0.028 |
| AGAACCAG | -0.162 ± 0.11 |
| ATTAAGTG | 0.168 ± 0.014 |
| GGTTCAAA | -0.343 ± 0.0085 |
| CGCACCAG | 0.242 ± 0.0071 |
| CGTATCCC | -0.0676 ± 0.046 |
| GCGCGGGA | 0.114 ± 0.029 |
| GCGCCACC | 0.276 ± 0.072 |
| ATTTCATC | -0.187 ± 0.026 |
| GCGTTACA | 0.189 ± 0.017 |
| ATCTGTGG | -0.149 ± 0.04 |
| GCAGCAGA | -0.132 ± 0.033 |
| GTTTTCTA | -0.191 ± 0.007 |
| ATAATCCG | -0.0937 ± 0.034 |
| AGTACTTC | -0.321 ± 0.02 |
| GCCCTGTA | -0.202 ± 0.063 |
| GAAAAAGA | -0.137 ± 0.024 |
| GCAAAAAA | -0.111 ± 0.022 |
| ATTCCGGA | -0.253 ± 0.0058 |
| CAACGCTC | 0.00391 ± 0.055 |

| Sequence | PBM E-score of 8-mer |
| --- | --- |
| CAGAGGAG | -0.063 ± 0.011 |
| CCTTGGCC | -0.182 ± 0.029 |
| GCATATTA | -0.0537 ± 0.048 |
| GCGTTTCC | -0.056 ± 0.057 |
| AGTCGTAG | -0.0391 ± 0.08 |
| CTACCTTA | -0.147 ± 0.033 |
| TACAGGAA | 0.05 ± 0.067 |
| GAGTTCTA | -0.148 ± 0.046 |
| ATGATTCG | -0.0332 ± 0.085 |
| AGCGTGAT | 0.28 ± 0.022 |
| GTACGTCA | 0.0569 ± 0.035 |
| CCTTTCAC | 0.2919 ± 0.002 |
| ATTGGCCG | -0.0513 ± 0.017 |
| CAGACGCC | 0.0869 ± 0.0014 |
| AGGCGAAG | 0.0362 ± 0.05 |
| CCGCCCAA | -0.0788 ± 0.015 |
| ATTTGCAG | 0.0673 ± 0.041 |
| GCGTTCCA | -0.152 ± 0.0033 |
| GGCACAAC | 0.0727 ± 0.06 |
| CAAAGGTA | -0.0771 ± 0.04 |
| TGTTCCAA | -0.0252 ± 0.053 |
| CCTCACAC | 0.4723 ± 0.0005 |

| Sequence | PBM E-score of 8-mer |
| --- | --- |
| ACTACTGC | -0.122 ± 0.034 |
| CGAGCTCC | -0.188 ± 0.041 |
| GTTCCTAA | -0.143 ± 0.0023 |
| GCATGAGA | -0.139 ± 0.053 |
| CCAACTCA | -0.0818 ± 0.049 |
| ACATTGAC | 0.2 ± 0.0096 |
| AGGGGTGA | 0.214 ± 0.023 |
| CAAACGGG | -0.103 ± 0.021 |
| GAACCGTA | -0.12 ± 0.015 |
| CCGCAGCG | 0.0865 ± 0.012 |
| GCGTAAAC | 0.193 ± 0.0043 |
| CTCGCTGA | 0.0386 ± 0.064 |
| ACTTTGGC | 0.154 ± 0.018 |
| ACTATCGA | 0.0214 ± 0.088 |
| ATAAAACG | -0.0723 ± 0.095 |
| AATCCGAA | -0.176 ± 0.046 |
| GCATTTCA | 0.00434 ± 0.016 |
| GATATGGA | -0.253 ± 0.013 |
| AGGTTCGG | -0.135 ± 0.038 |
| ATACATTA | -0.283 ± 0.054 |
